Data on 95 molecules can be found in PubChem BioAssay AID485344 (National Center for Advancing Translational Sciences (NCATS), 2010).

Molecules are shown by their SMILES. Hit rate of the full screen: of about 340,000 compounds, about 6,900 (2%) were called active. No stated cut-off is given here; in the data, active means inhibition above about 30%; inactive means below that, where a call was filed. The list shows a part of the results, in another mix than the full data. The source gives no active or inactive call for entries shown without one.

The target in the experiment is D(2) dopamine receptor (Homo sapiens) (UniProt P14416). Briefly: HTS Assay for Allosteric Antagonists of the Human D2 Dopamine Receptor: Primary Screen for Antagonists. Further: 0% is about no effect. To be noted: HEK293 TREx D2 cells, calcium flux, dopamine EC80; at 10 µM; stronger effect = higher value. Summed up: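 Read-out: kinetic calcium fluorescence (1 cycle/s) in inducible HEK293 T-REx D2 cells after an EC80 dopamine addition that followed 180 s compound preincubation. Loss of the dopamine response indicates antagonism.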
Chain of UniProt P14416 (P14416 whole entry, looked up): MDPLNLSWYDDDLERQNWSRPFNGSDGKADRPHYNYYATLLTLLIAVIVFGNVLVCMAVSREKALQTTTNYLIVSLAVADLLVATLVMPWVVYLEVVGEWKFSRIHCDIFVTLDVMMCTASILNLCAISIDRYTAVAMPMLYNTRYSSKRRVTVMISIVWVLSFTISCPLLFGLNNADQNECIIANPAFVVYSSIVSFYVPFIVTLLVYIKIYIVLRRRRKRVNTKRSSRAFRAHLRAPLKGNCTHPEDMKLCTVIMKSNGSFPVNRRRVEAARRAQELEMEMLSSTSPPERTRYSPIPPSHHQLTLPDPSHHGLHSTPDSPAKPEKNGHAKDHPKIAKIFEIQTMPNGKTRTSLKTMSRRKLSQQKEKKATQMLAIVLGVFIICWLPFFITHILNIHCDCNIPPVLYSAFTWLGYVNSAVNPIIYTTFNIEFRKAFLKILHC
In general terms: A change in cytosolic calcium serves as a functional read-out for many receptors and channels.
A word on the inhibition: it is the relative decrease from the control value, in per cent. Regarding `Cc1ccc(C(=O)CSc2ncc3c(n2)-c2ccccc2N(Cc2ccc(Cl)cc2)S3(=O)=O)cc1`, the inhibition was -3.52%.

On to `COCCNc1oc(-c2ccc(COc3ccc(OC)cc3)o2)nc1C#N`, for which the inhibition is -2.66%.

As for `Cc1cc2nc3s/c(=C/c4ccc(-c5ccccc5C(=O)O)o4)c(=O)n3c2cc1C`, the inhibition is active: 33.8%.

As to `Cc1ccc2c(c1)c(=O)c(C(=O)c1ccc3c(c1)OCO3)cn2Cc1cccc(F)c1`, the inhibition came to 2.67%.

Take `Cc1ccc(-c2nn(-c3ccc(F)cc3F)c3c2cnc2c(F)cccc23)cc1`: the inhibition was -1.45%.

`Cc1ccc(NC(=O)CSc2nc3ccccc3c3nc(CCc4c(C)n[nH]c4C)nn23)c(C)c1`: the inhibition stood at 7.15%.

Consider `CCOC(=O)c1cnc2c(ccc3ccccc32)c1Nc1ccccc1OC`, for which the inhibition is -9.96%.

Turning to `CC(C)CCOC(=O)C1C2C=CC3(CN(Cc4cccs4)C(=O)C13)O2` (stereo not given), the inhibition is active: 33.2%.

For the molecule `Cc1ccc(S(=O)(=O)CCC(=O)Nc2ccc(Br)cc2C)cc1`, the inhibition came out at 5.83%.

Regarding `COc1ccc(NC(=O)Cn2c(=O)cc(C)c3c(C)nn(-c4cccc(Cl)c4C)c32)cc1OC`, the inhibition was -23.9%.

As for `O=C(NC1CC(=O)N(c2ccc3c(c2)OCCO3)C1)c1c(F)cccc1Cl` (stereo not given), the inhibition came to 22.8%.

Take `O=C(NCCc1csc(-c2ccc(F)cc2)n1)c1cccs1`: the inhibition is 2.93%.

Regarding `CCOC(=O)c1cc(-c2ccccc2)n(CC(=O)NC2CCC(C)CC2)c1C` (stereo not given), the inhibition turned out to be 19.6%.

Take `COc1ccc(-c2noc(CSc3nnc(Cc4ccccc4)n3-c3ccccc3)n2)cc1OC`: the inhibition was 0.299%.

With `Cc1ccc2[nH]c(C(=O)Nc3ccccc3)cc2c1`, the inhibition came to 1.71%.

Turning to `CCOc1cc(C2NC(=O)c3c(sc4c3CCN(C)C4)N2)ccc1OC(=O)c1ccccc1Cl` (stereo not given), the inhibition turned out to be 9.81%.

Turning to `Cc1ccc(CN2COc3cc(C)c4c(oc(=O)c5ccccc54)c3C2)cc1`, the inhibition came to 7.2%.

Consider `CN1CCN(CCCNC(=O)Cn2c(-c3cccs3)cc3cc(Cl)ccc32)CC1`, for which the inhibition was -1.6%.

On to `Cc1cc(-c2cc(C(=O)NC3CCCC3)on2)nc(NCC2CC2)n1`, for which the inhibition was active: 33.4%.

With `Cc1ccc(-c2[nH]c(-c3ccc(Cl)cc3)nc2SCC(=O)NCC2CCCO2)cc1` (stereo not given), the inhibition was active: 60.9%.

`CCOc1ccc(NC(=O)c2cnn(-c3ccc(C)c(Cl)c3)c2C2CCNCC2)cc1`: the inhibition is -1.09%.

Take `COc1cc(OC)c(NC(=O)C(NS(=O)(=O)c2cccc3nsnc23)c2ccccc2)cc1Cl` (stereo not given): the inhibition was -10.9%.

As to `COCC(C)NC(=O)c1cnn2c(C(F)F)cc(-c3ccccc3)nc12` (stereo not given), the inhibition was -1.04%.

With `CN(C(=O)Cn1cc(S(=O)(=O)N2CCN(c3ccccc3F)CC2)c2ccccc2c1=O)c1ccc(Cl)cc1`, the inhibition is -5.28%.

Consider `O=C(NCCCN1CCN(c2ccccc2F)CC1)c1cc2c(Cl)nc3ccccc3c2s1`, for which the inhibition was -22.6%.

In the case of `CC(NS(=O)(=O)c1ccc(OCC(=O)N2CCOCC2)cc1)c1ccccc1` (stereo not given), the inhibition was active: 30.5%.

`Cc1ccc(C(=O)Nc2ccccc2C(=O)O)cc1S(=O)(=O)N1CCCCCC1`: the inhibition is -21.3%.

With `CCCCCOc1ccc(NC(=O)Cc2csc(C)n2)cc1`, the inhibition was -19.7%.

As to `O=C(Nc1sc2c(c1C(=O)Nc1ccc(Cl)cc1)CCCC2)c1cccs1`, the inhibition was 4.98%.

For the molecule `Cc1nnc(SCc2ccccc2Cl)c2cc3sccc3n12`, the inhibition was 5.41%.

In the case of `CC(=O)c1ccc(NC(=O)c2cc(-c3ccc4c(c3)OCO4)on2)cc1`, the inhibition is 6.15%.

For the molecule `CCc1ccc(-c2nc(CN3CCCC(C(=O)NCc4ccc(C)cc4)C3)c(C)o2)cc1` (stereo not given), the inhibition was -4.08%.

Consider `COc1ccc(-c2cc3nc(C)c(CCC(=O)Nc4cccc(C(F)(F)F)c4)c(C)n3n2)c(OC)c1`, for which the inhibition was 0.585%.

As for `CCn1cc2nc(SCC(=O)Nc3ccccc3F)n(Cc3ccc(C)cc3)c(=O)c2n1`, the inhibition is -1.25%.

Consider `Cc1ccnc(NC(=O)c2c(C)oc3ncn(CC(C)C)c(=O)c23)c1`, for which the inhibition worked out at 11%.

Turning to `Cc1ccc(CNC(=O)Nc2cn(CC(C)C)c(=O)c3ccccc23)cc1`, the inhibition is 2.64%.

On to `O=C(CSc1nc2c([nH]c3ccccc32)c(=O)n1-c1ccc(F)cc1)NCc1ccc(F)cc1`, for which the inhibition is -13.3%.

Regarding `CCOc1ccc(CCNC(=O)c2ccc3c(c2)nc2n3CCOC2)cc1OCC`, the inhibition is 0.607%.

With `CC(C)OCCCNC(=O)CCCn1c(SCC(N)=O)nc2c(sc3ccccc32)c1=O`, the inhibition is -5.79%.

Turning to `Cc1ccc(Cl)cc1NC(=O)C1CCN(C(=O)c2cnn(-c3ccccc3)c2-n2cccc2)CC1`, the inhibition is 13.1%.

As for `O=C(Nc1cccc(C(=O)OCc2cc(=O)n3c4c(sc3n2)CCCC4)c1)c1cccc(Cl)c1`, the inhibition is -11.2%.

With `Cn1cnc2c(=O)oc3ccc(S(=O)(=O)N4CCN(c5ccccc5F)CC4)cc3c21`, the inhibition stood at 5.46%.

On to `COc1cccc(NC(=O)Cn2nnc(C(=O)NCCc3ccccc3)c2N)c1`, for which the inhibition was determined as 18.4%.

For `Cc1nc(-c2ccc(S(=O)(=O)N(Cc3ccccc3)C(C)C)cc2)co1`, the inhibition was -10.1%.

With `Cn1cc(C(=O)Nc2ccc(C#N)cc2)c2ccccc2c1=O`, the inhibition is -12%.

As to `COc1ccc(CCn2c(=O)c3cccnc3n(CC(=O)Nc3ccc(C)cc3C)c2=O)cc1OC`, the inhibition was 15.5%.

Turning to `CCN(CC)c1ccc(NC(=O)CN2CCN(S(=O)(=O)c3cc(Cl)ccc3OC)CC2)cc1`, the inhibition is -5.35%.

As to `CN(C(=O)C1CCN(c2ncnc3c2nc2n3CCCCC2)CC1)c1ccccc1F`, the inhibition was 5.03%.

For the molecule `COc1ccc(NC(=O)CSc2nc(-c3ccccc3)[nH]c2-c2ccccc2)cc1OC`, the inhibition is 0.291%.

On to `CC(C)C(NS(=O)(=O)c1ccc2c(c1)oc(=O)n2C)C(=O)NCc1ccccc1` (stereo not given), for which the inhibition was found to be 12.1%.

Consider `CC(=O)c1ccc(N2CCN(C(=O)c3cc4c(s3)-c3ccccc3OC4)CC2)cc1`, for which the inhibition is -14.3%.

Regarding `Cc1oc(-c2ccc(C(=O)NCc3ccccc3F)cc2)nc1COc1ccccc1`, the inhibition was -15.8%.

As to `O=C(CCS(=O)(=O)c1nc(-c2cccs2)cc(C(F)(F)F)n1)Nc1ccc(F)c(Cl)c1`, the inhibition was -11.5%.

Consider `Cc1ccc(NC(=O)C2CCN(S(=O)(=O)c3ccc4c(c3)CCCN4C(=O)C3CCC3)CC2)cc1`, for which the inhibition was -25.3%.

Consider `O=C(NCCCN1CCCCC1)c1[nH]c2ccccc2c1Sc1ccc(Cl)cc1`, for which the inhibition was found to be 12.9%.

Take `Cc1cc(C)nc(NS(=O)(=O)c2ccc(NC(=O)c3nc(SC(C)C)ncc3Cl)cc2)n1`: the inhibition was determined as 12.5%.

With `Cc1c(Cl)cccc1-n1ncc(C(=O)N2CCC(C)CC2)c1C1CCN(C(=O)OC(C)(C)C)CC1`, the inhibition was -7.09%.

As for `CCc1nn(CC(=O)N2CCN(c3cccc(Cl)c3)CC2)c(=O)c2cc3sccc3n12`, the inhibition was determined as 2.01%.

Consider `CCOc1ccc(NC(=O)Cn2c(=O)n(Cc3ccco3)c(=O)c3ccc(C(=O)NC4CCCC4)cc32)cc1`, for which the inhibition is 4.01%.

`CCCN(CCC)CCCNC(=O)c1ccc2c(c1)N(CC)C(=O)c1ccccc1S2=O` (stereo not given): the inhibition was active: 107%.

Turning to `CCOc1ccc(N2CC(C(=O)NCc3ccc4c(c3)OCO4)CC2=O)cc1` (stereo not given), the inhibition was active: 36%.

`O=C1CC(c2cccc(Cl)c2Cl)c2cc3c(cc2N1)OCCO3` (stereo not given): the inhibition is 12.3%.

Consider `COc1cc(OC)c(NC(=O)Cn2c(SCc3ccccc3F)nc3cccnc32)cc1Cl`, for which the inhibition was 1.51%.

For the molecule `Cc1ccccc1Cn1nc(C)c(NC(=O)c2cc(CC(C)C)on2)c1C`, the inhibition is 8.73%.

Regarding `COCCn1c(-c2ccc(NC(C)=O)cc2)nc2c1c(=O)[nH]c(=O)n2CC(C)C`, the inhibition was active: 30.5%.

For `CCOc1ccc(NC(=O)Cn2nc(SC)c(S(=O)(=O)c3ccccc3)c2N)cc1`, the inhibition is 10.6%.

For `CC(=O)c1ccc(N2CCN(c3nc4ccccc4c4nc(-c5cccc(C)c5)nn34)CC2)cc1`, the inhibition was -10.3%.

Turning to `Cc1ccc(Cn2ccnc2SCC(=O)Nc2ccccc2C(F)(F)F)cc1`, the inhibition was found to be 0.812%.

For the molecule `COc1ccc(OC)c(NC(=O)CCn2cccn2)c1`, the inhibition is -3.07%.

For the molecule `CCCn1c2ccccc2c2cnn(CC(=O)NCc3ccc(OC)cc3)c(=O)c21`, the inhibition was -6.2%.

As to `CCOC(=O)c1ccccc1NC(=O)NCc1cccn1Cc1ccc(F)cc1`, the inhibition came to 13.3%.

Consider `Cc1cc(Cl)ccc1OCC(=O)N1CCC(c2nc3ccccc3o2)CC1`, for which the inhibition came to 6.84%.

`CCOc1ccc(NC(=O)N2CCC(c3ccc(C)cc3)C2)cc1` (stereo not given): the inhibition turned out to be 8.47%.

As for `O=C(COc1ccc(F)cc1)Nc1ccc(C(=O)OCc2cc(=O)n3nc(C4CC4)sc3n2)cc1`, the inhibition was -2.99%.

As to `Cc1ccc(CN(Cc2cccn2-c2nnc(N3CCCC3=O)s2)C(=O)Nc2ccc(F)cc2)cc1`, the inhibition is -4.37%.

Consider `CCOc1ccc(NC(=O)c2sc3nc4c(cc3c2N)CN(Cc2ccccc2)CC4)cc1`, for which the inhibition was 4.13%.

In the case of `Cc1ccc(-n2nc(C(=O)Nc3ccc(Br)cc3C)c(=O)n(C)c2=O)cc1`, the inhibition is -18.9%.

Regarding `COc1ccccc1CNC(=O)CSCc1nc(-c2ccc(OC)c(OC)c2)oc1C`, the inhibition was -6.42%.

Turning to `COC(=O)c1ccc(NC(=O)C(=O)NCCc2csc(-c3ccc(C(F)(F)F)cc3)n2)cc1`, the inhibition is -10.5%.

In the case of `CCCCNC(=O)c1sc(=S)n2c1[nH]c(=O)c1ccccc12`, the inhibition is active: 32.7%.

In the case of `COc1ccc(NC(=O)CN2CCN(CC(=O)Nc3ccccc3F)CC2)cc1OC`, the inhibition came to 6.41%.

Turning to `Cc1oc(-c2ccccc2Cl)nc1CS(=O)CC(=O)NCc1ccccc1Cl` (stereo not given), the inhibition was found to be 11.5%.

Turning to `O=S(=O)(c1ccc(F)cc1)N(Cc1nc(-c2ccccc2)no1)C1CCCCC1`, the inhibition is -16.1%.

For the molecule `CCOc1ccccc1CNC(=O)CCn1ccc2cc(S(=O)(=O)N3CCCCC3)ccc21`, the inhibition is -3.92%.

For `CCc1ccc(-n2c(=O)c3c(C)c(C(=O)N(C)C)sc3n(Cc3ccccc3F)c2=O)cc1`, the inhibition was -23.5%.

Regarding `Cn1c(=O)c2sccc2n2c(CCCC(=O)Nc3ccc(Oc4ccc(Cl)cc4)cc3)nnc12`, the inhibition was -12.3%.

With `CC(=O)N1c2c(cc(Br)cc2S(=O)(=O)N2CCN(c3ccccc3)CC2)CC1C` (stereo not given), the inhibition came to 8.35%.

Turning to `Cc1ccc(-c2cc3c(N4CCN(c5cc(C)ccc5C)CC4)nccn3n2)cc1`, the inhibition is -16.3%.

Regarding `CC(C)CCOc1ccccc1Cn1c(=O)sc2ccccc21`, the inhibition was 8.83%.

On to `Cc1ccccc1NS(=O)(=O)c1ccc2[nH]c3c(c2c1)CCCCC3`, for which the inhibition was -3.03%.

With `CCOC(=O)c1cc(-c2ccccc2)n(CCC(=O)Nc2nc3c(C)cccc3s2)c1C`, the inhibition amounted to 9.98%.

In the case of `Cc1ccc(Cl)cc1N1CCN(C(=O)c2ccc3nc(N4CCC(C)CC4)sc3c2)CC1`, the inhibition is 5.17%.

As for `COc1ccc(/C=C/C(=O)Nc2ccc(Cl)c(Cl)c2)cc1`, the inhibition was 3.54%.

For `Cc1cc(-c2ccc(C)c(S(=O)(=O)Nc3cccc(C#N)c3)c2)on1`, the inhibition was -15.5%.

On to `CCCCn1c(NC(=O)c2ccccc2)c(C#N)c2nc3ccccc3nc21`, for which the inhibition was active: 37.8%.
